According to the supplement of paper PMC4604168 (melanoma cell lines):
This is one part of the list. Most values come without repeats; read them as rough.

Assays:
Experiment in all cases: cell count relative to DMSO control; melanoma cells; higher = more viable cells
Conditions in all cases: library dose: standard library concentration; 72 h
[1] = tested on: SkMel28
[2] = tested on: SkMel2
[3] = tested on: SkMel30
[4] = tested on: SkMel5
[5] = tested on: UACC257
[6] = tested on: UACC62
[7] = tested on: WM115
[8] = tested on: WM1716
[9] = tested on: WM1745
[10] = tested on: WM3526
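Further: cells treated in 1,536-well plates, then fixed and DAPI-stained, with nuclei counted from automated high-throughput microscope images.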

Row | Compound | cell count [1] [%] | cell count [2] [%] | cell count [3] [%] | cell count [4] [%] | cell count [5] [%] | cell count [6] [%] | cell count [7] [%] | cell count [8] [%] | cell count [9] [%] | cell count [10] [%]
1 | C[As](C)SC[C@H](NC(=O)CC[C@H](N)C(=O)O)C(=O)NCC(=O)O [Darinaparsin] + COc1ccc2c(c1)CCC1C2CCC2(C)C(NCCCCCCN3C(=O)C=CC3=O)CCC12 [U73122] (first compound 2 µM, partner dose 2 µM) | 83.4 | 88.2 | 119 | 73.6 | 86.4 | 102 | 72.2 | 3.21 | 92.8 | 87
2 | N.N.[Cl][Pt][Cl] [cisplatin] + C=C(c1ccc(C(=O)O)cc1)c1cc2c(cc1C)C(C)(C)CCC2(C)C [Bexarotene] (first compound 8 µM, partner dose 10 µM) | 79.6 | 92.1 | 94 | 89.3 | 84.3 | 63.1 | 104 | 87 | 115 | 66.2
3 | Cn1cc(C2=C(c3cn(C4CCN(Cc5ccccn5)CC4)c4ccccc34)C(=O)NC2=O)c2ccccc21 [Enzastaurin] + O=C(O)[C@@H]1[O][Sb](=[O])([O][Sb]2(=[O])[O][C@H]([C@H](O)CO)[C@H](O)[C@H](C(=O)O)[O]2)[O][C@H]([C@H](O)CO)[C@@H]1O [stibogluconate] (first compound 4 µM, partner dose 10 µM) | 110 | 103 | 88.6 | 105 | 104 | 72.9 | 91.9 | 98.5 | 72 | 89
4 | N.N.[Cl][Pt][Cl] [cisplatin] + CN(C)S(=O)(=O)c1ccc2c(c1)/C(=C/c1cc3c([nH]1)CCCC3)C(=O)N2 [SU6656] (first compound 8 µM, partner dose 2 µM) | 47.5 | 82.7 | 71.3 | 72 | 104 | 101 | 67.8 | 93.9 | 66.6 | 89.3
5 | C[C@]12O[C@H](C[C@]1(O)CO)n1c3ccccc3c3c4c(c5c6ccccc6n2c5c31)CNC4=O [Lestaurtinib] + COc1ccc(Cl)c(Nc2nc3ccccc3nc2NS(=O)(=O)c2cccc(NC(=O)C(C)(C)N)c2)c1 [XL147] (first compound 0.02 µM, partner dose 4 µM) | 78.4 | 125 | 94.3 | 52.5 | 83.1 | 78.3 | 76.9 | 86.5 | 82.8 | 81.5
6 | N.N.[Cl][Pt][Cl] [cisplatin] + C[C@@H]1CCN(C(=O)CC#N)C[C@@H]1N(C)c1ncnc2[nH]ccc12 [CP690550] (first compound 8 µM, partner dose 5 µM) | 86.7 | 84.9 | 79.3 | 91.8 | 84.9 | 110 | 93.9 | 88.7 | 112 | 100
7 | C[As](C)SC[C@H](NC(=O)CC[C@H](N)C(=O)O)C(=O)NCC(=O)O [Darinaparsin] + Cc1cc(N2CCOCC2)cc2[nH]c(-c3c(NC[C@@H](O)c4cccc(Cl)c4)cc[nH]c3=O)nc12 [BMS536924] (first compound 2 µM, partner dose 1 µM) | 60.5 | 82.5 | 77.3 | 71.7 | 83.4 | 101 | 68.4 | 58.7 | 52.7 | 56.5
8 | Cn1cc(C2=C(c3cn(C4CCN(Cc5ccccn5)CC4)c4ccccc34)C(=O)NC2=O)c2ccccc21 [Enzastaurin] + CNC(=O)c1cc(Oc2ccc(NC(=O)Nc3ccc(Cl)c(C(F)(F)F)c3)cc2)ccn1 [sorafenib] (first compound 4 µM, partner dose 2 µM) | 97.2 | 57.3 | 84.9 | 81.5 | 74.5 | 94.7 | 92.6 | 68.6 | 59.2 | 104
9 | C[C@]12O[C@H](C[C@]1(O)CO)n1c3ccccc3c3c4c(c5c6ccccc6n2c5c31)CNC4=O [Lestaurtinib] + Nc1nc(F)nc2c1ncn2[C@@H]1O[C@H](CO)[C@@H](O)[C@@H]1O [fludarabine] (first compound 0.02 µM, partner dose 1 µM) | 4.74 | 2.21 | 24.4 | 51.8 | 36.7 | 49.4 | 86.4 | 114 | 68.7 | 34.5
10 | C[C@]12O[C@H](C[C@]1(O)CO)n1c3ccccc3c3c4c(c5c6ccccc6n2c5c31)CNC4=O [Lestaurtinib] + NC(=O)Nc1cc(-c2cccc(F)c2)sc1C(=O)N[C@H]1CCCNC1 [AZD7762] (first compound 0.02 µM, partner dose 0.1 µM) | 44.1 | 76.3 | 65.1 | 71.9 | 109 | 79.5 | 56.3 | 78.8 | 68 | 63.4
11 | N.N.[Cl][Pt][Cl] [cisplatin] + COc1cc2c(Oc3ccc4[nH]c(C)cc4c3F)ncnc2cc1OCCCN1CCCC1 [cediranib] (first compound 8 µM, partner dose 2 µM) | 74.9 | 76.3 | 82.9 | 117 | 111 | 76.2 | 76.1 | 97.5 | 97.2 | 92.3
12 | C[As](C)SC[C@H](NC(=O)CC[C@H](N)C(=O)O)C(=O)NCC(=O)O [Darinaparsin] + O=C(CCCCCCC(=O)Nc1ccccc1)NO [vorinostat] (first compound 2 µM, partner dose 0.4 µM) | 43.4 | 88.1 | 95.5 | 58.5 | 57.9 | 77 | 67 | 72.1 | 80.9 | 60.2
13 | C[As](C)SC[C@H](NC(=O)CC[C@H](N)C(=O)O)C(=O)NCC(=O)O [Darinaparsin] + COc1ccc(Cl)c(Nc2nc3ccccc3nc2NS(=O)(=O)c2cccc(NC(=O)C(C)(C)N)c2)c1 [XL147] (first compound 2 µM, partner dose 4 µM) | 96.8 | 97.3 | 92.3 | 66.6 | 86.2 | 57.7 | 101 | 68.6 | 85.1 | 74.8
14 | Cn1cc(C2=C(c3cn(C4CCN(Cc5ccccn5)CC4)c4ccccc34)C(=O)NC2=O)c2ccccc21 [Enzastaurin] + COCC[n+]1c2c(n(Cc3cnccn3)c1C)C(=O)c1ccccc1C2=O [YM155] (first compound 4 µM, partner dose 0.002 µM) | 48.9 | 33.7 | 47.7 | 25.4 | 25.1 | 54.2 | 75 | 69.9 | 61.7 | 26.6
15 | C[C@]12O[C@H](C[C@]1(O)CO)n1c3ccccc3c3c4c(c5c6ccccc6n2c5c31)CNC4=O [Lestaurtinib] + CS(=O)(=O)CCNCc1ccc(-c2ccc3ncnc(Nc4ccc(OCc5cccc(F)c5)c(Cl)c4)c3c2)o1 [lapatinib] (first compound 0.02 µM, partner dose 4 µM) | 49.8 | 77.1 | 73.7 | 48.2 | 90.4 | 45 | 83 | 96 | 106 | 70
16 | C[C@]12O[C@H](C[C@]1(O)CO)n1c3ccccc3c3c4c(c5c6ccccc6n2c5c31)CNC4=O [Lestaurtinib] + C[As](C)SC[C@H](NC(=O)CC[C@H](N)C(=O)O)C(=O)NCC(=O)O [Darinaparsin] (first compound 0.02 µM, partner dose 2 µM) | 101 | 103 | 95.6 | 55.4 | 82.2 | 87.7 | 68.1 | 74.3 | 100 | 72.6
17 | C[C@]12O[C@H](C[C@]1(O)CO)n1c3ccccc3c3c4c(c5c6ccccc6n2c5c31)CNC4=O [Lestaurtinib] + CCCS(=O)(=O)Nc1ccc(F)c(C(=O)c2c[nH]c3ncc(Cl)cc23)c1F [PLX4720] (first compound 0.02 µM, partner dose 0.4 µM) | 35.9 | 111 | 79.5 | 50.5 | 83.6 | 50.4 | 55.9 | 66.7 | 65 | 40.1
18 | Cn1cc(C2=C(c3cn(C4CCN(Cc5ccccn5)CC4)c4ccccc34)C(=O)NC2=O)c2ccccc21 [Enzastaurin] + C=CCn1c(=O)c2cnc(Nc3ccc(N4CCN(C)CC4)cc3)nc2n1-c1cccc(C(C)(C)O)n1 [MK1775] (first compound 4 µM, partner dose 0.1 µM) | 40.8 | 82.9 | 95 | 48.9 | 97.8 | 68.5 | 82.9 | 72.5 | 42.8 | 79.9
19 | N.N.[Cl][Pt][Cl] [cisplatin] + Cc1ccc(NC(=O)c2cccc(N(C)C)c2)cc1NC(=O)c1ccc(O)cc1 [ZM336372] (first compound 8 µM, partner dose 10 µM) | 86.4 | 88.4 | 92.3 | 92.2 | 91.5 | 107 | 86.7 | 128 | 86.9 | 95.5
20 | Cn1cc(C2=C(c3cn(C4CCN(Cc5ccccn5)CC4)c4ccccc34)C(=O)NC2=O)c2ccccc21 [Enzastaurin] + O=C(O)c1ccc(-c2c[nH]c3ncc(-c4ccccc4)cc23)cc1C1CCCC1 [GSK650394] (first compound 4 µM, partner dose 0.8 µM) | 105 | 86.3 | 90.1 | 68.4 | 77.5 | 81.7 | 97.4 | 67.2 | 73.4 | 97.1
21 | C[C@]12O[C@H](C[C@]1(O)CO)n1c3ccccc3c3c4c(c5c6ccccc6n2c5c31)CNC4=O [Lestaurtinib] + C=CCn1c(=O)c2cnc(Nc3ccc(N4CCN(C)CC4)cc3)nc2n1-c1cccc(C(C)(C)O)n1 [MK1775] (first compound 0.02 µM, partner dose 0.1 µM) | 47.2 | 70 | 62.6 | 40.6 | 82.9 | 70.2 | 50.5 | 66.3 | 40 | 57.2
22 | C[C@]12O[C@H](C[C@]1(O)CO)n1c3ccccc3c3c4c(c5c6ccccc6n2c5c31)CNC4=O [Lestaurtinib] + C[C@@H]1CCN(C(=O)CC#N)C[C@@H]1N(C)c1ncnc2[nH]ccc12 [CP690550] (first compound 0.02 µM, partner dose 5 µM) | 70.2 | 107 | 72.7 | 58.2 | 107 | 85.7 | 83.1 | 106 | 111 | 65.5
